The text below walks through data of publication PMC12670160, “A drug-repurposing screen of FDA- and EMA-approved drugs identifies two NF-κB inhibitors active against eumycetoma” (Journal of Antimicrobial Chemotherapy, 2025).

Structures can show the parent of a compound that is named as a salt. What follows is the remainder of the data, with few or none of the strong results.

The experiment deals with M. mycetomatis strain mm55. To be noted: m. mycetomatis hyphae, 96 h, 2 µM.
With `CN1c2ccccc2C(NCCCCCCC(=O)O)c2ccc(Cl)cc2S1(=O)=O` (centres unmarked) [ONC0004261, tianeptine sodium salt], the “% viability” value is given as 66.06%. In the case of `CC(=O)[C@H]1CC[C@H]2[C@@H]3CC[C@H]4C[C@H](O)CC[C@]4(C)[C@H]3C(=O)C[C@]12C` [ONC0002908, alfaxalone] it was 53.4%.
